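Dose response: 5 concentrations. Exposure: 48 h. Format: 96-well plates. Endpoint: linear interpolation; highest concentration if not reached. At the GI50, growth is halved.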 Active and inactive are the calls of the source. Rule as the data show it: active = GI50 up to about 1.1 µM and inactive = higher. Numbered stars: 1 amine (or outer) side, 2 acyl side, 3 side chain; on linkers, the order of the positions; unused ones are H or OH. Bridge positions count the residues as written; N and C are the ends. Square brackets hold non-standard residues; d marks the D form. Peptide text beside a SMILES is read from it. * marks the point of attachment. ξ: configuration not given here. X31 = O=C(C(CCCCNO[*:3])N[*:1])[*:2]; Fmoc = O=C(OCC1c2ccccc2-c2ccccc21)*; ξW = NC(Cc1c[nH]c2ccccc12)C(=O)O; ξP = O=C(O)C1CCCN1
tested on: NCI-H322M; assay: growth of human tumour cells (NCI), 48 h

| Structure (SMILES) | GI50 |
| --- | --- |
| N=C1C=C(N)C(=O)c2[nH]c(=O)ccc21 | inactive: 2.23 µM |
| NCCNCCNc1ccc(NCCNCCN)c2c1C(=O)c1c(O)ccc(O)c1C2=O | inactive: > 100 µM |
| COc1ccc(C2Oc3ccc(Cl)cc3C=C2[N+](=O)[O-])cc1OC (centres undefined) | inactive: 1.47 µM |
| CCOC(=O)c1nc2ccccc2nc1NCc1ccc(Cl)cc1Cl | inactive: > 100 µM |
| Nc1nc(N)c2ncn(-c3ccc(Br)cc3)c2n1 | inactive: 77.6 µM |
| S=C(Nc1ccc(/N=N/c2ccccc2)cc1)SCc1ccccc1 | inactive: 13.2 µM |
| c1ccc([P+](Cc2ccccc2C[P+](c2ccccc2)(c2ccccc2)c2ccccc2)(c2ccccc2)c2ccccc2)cc1 | inactive: > 100 µM |
| CCOP(=O)(OCC)/C(C#N)=C/c1ncc[nH]1 | inactive: > 100 µM |
| NC1CC(=O)c2cc(Cl)sc21 (centres undefined) | inactive: > 100 µM |
| O=C(Nc1ccc(Cl)cc1Cl)C(=O)C(C(=O)c1ccc2ccccc2c1)C1OC(=O)c2ccccc21 (centres undefined) | inactive: 7.08 µM |
| Cc1ccccc1NC(=O)C1C(=O)N(c2ccccc2C)C(=O)/C1=N\N (centres undefined) | inactive: > 100 µM |
| COc1ccc2nc(-c3ccc(N)cc3)sc2c1 | inactive: 39.4 µM |
| Oc1ccc(Br)cc1/C=N/c1c(NC2CCCCC2)oc2ccc(Br)cc12 | inactive: 40.9 µM |
| COC1=CC2=NCCc3n[nH]c(c32)C1=O | inactive: 27.4 µM |
| CCc1cc2c(Nc3ccccc3)c3c(nc2s1)CCCC3 | inactive: > 100 µM |
| Cc1ncc(CSC(=N)N)n1Cc1ccccc1 | inactive: > 100 µM |
| C/C(=N/NC(=S)N1CCCCCC1)c1cccc(/C(C)=N\NC(=S)N2CCCCCC2)n1 | inactive: 1.35 µM |
| O=NN(CCCl)C(=O)N[C@H]1CC[C@H](CC(=O)O)CC1 | inactive: > 100 µM |
| CCOC(=O)c1nnsc1NC(=O)NCCCCCCn1c(=O)n(CCCCCCNC(=O)Nc2snnc2C(=O)OCC)c(=O)n(CCCCCCNC(=O)Nc2snnc2C(=O)OCC)c1=O | inactive: 43.4 µM |
| Cc1nn(-c2ccccc2)c(C)c1/C=N/NC(=O)c1sc(=S)n(-c2ccc(Cl)cc2)c1N | inactive: 22.4 µM |
| c1ccc2c(c1)nc1n2C2CCC(C2)N1 (centres undefined) | inactive: > 10 µM |
| CC(C)Cc1cccc(C(C)C)c1NC(=O)CCC(=O)N/N=C1\C(=N/NC(=O)CCC(=O)Nc2c(C(C)C)cccc2C(C)C)C(c2ccc3c(c2)OCO3)Oc2ccccc21 (centres undefined) | inactive: > 100 µM |
| NC(=O)C12CC3CC(CC(Br)(C3)C1)C2 | inactive: > 100 µM |

| Structure (SMILES) | GI50 |
| --- | --- |
| O=C(NNC(=S)Nc1ccccc1)c1cc(-c2ccccc2)nc2ccccc12 | inactive: 23.9 µM |
| C/C(CC(=O)N(C(C)C)C(C)C)=N\NC(=O)c1ccncc1 | inactive: > 100 µM |
| CCCCCCCCCCCC[N+]12CC[N+](C)(CC1)CC2 | inactive: 29.9 µM |
| COC(=O)C1=C(C(=O)OC)SC2(S1)C1=C(CCCC1)SC(C(=O)OC)=C2C(=O)OC | inactive: 3.56 µM |
| COc1cc(C(=O)CC2OC(=O)C(Cl)=C2Cl)ccc1Cl (centres undefined) | inactive: > 100 µM |
| c1ccc([S+](c2ccccc2)c2ccc(Sc3ccc([S+](c4ccccc4)c4ccccc4)cc3)cc2)cc1 | inactive: 35.9 µM |
| NC(=O)CNC(=O)C1CCCN1C(=O)C1CCCCNOC(=O)CC[C@@H](NC(=O)OCC2c3ccccc3-c3ccccc32)C(=O)NC(Cc2c[nH]c3ccccc23)C(=O)N1 (some centres undefined) (Fmoc-[dE][ξW][X31][ξP]G-NH2; ester 1-3) | inactive: > 100 µM |
| Nc1c(-c2ccccc2[N+](=O)[O-])nc2ccccn12 | inactive: > 100 µM |
| O=S1(=O)OCCOS(=O)(=O)C1(I)I | inactive: 22.3 µM |
| CC(C)(C)C1=CC(CCC(=O)Nc2ccccc2[N+](=O)[O-])=NC(S)N1 (centres undefined) | inactive: > 100 µM |
| CC(C)COC(=O)N1N=NC2C3CC(=O)C(O3)C21 (centres undefined) | inactive: > 100 µM |
| CC(=O)/C(=C/n1c(=S)sc2ccccc21)C(=O)Nc1ccccc1C | inactive: > 100 µM |
| O=C1CC[C@@]23CC(=O)O[C@@H]2CCCC3C1 (some centres undefined) | inactive: > 100 µM |
| CCCCCCc1cc2cc(-c3cn4c(n3)sc3ccccc34)c(=O)oc2cc1O | inactive: > 87.1 µM |
| O=C(c1ccccc1)[C@H]1Nc2ccc(Cl)cc2[C@H]2OCCC[C@@H]12 | inactive: 22.9 µM |
| CC(=O)OCC1OC(N2C(=O)NC(=O)C3C=C4CCCCC4=CC32)CC1OC(C)=O (centres undefined) | inactive: > 100 µM |
| Cc1cccc(C)c1NC(=S)NC=C(C(N)=O)C(N)=O | inactive: > 100 µM |
| COc1c(Cl)ccc(Cl)c1-c1nnc(-c2c(Cl)c(Cl)c(Cl)c(Cl)c2-c2nc3cc(C(=O)c4ccccc4)ccc3[nH]2)o1 | inactive: 80.2 µM |
| COc1cc(C2C(Cl)C(=O)N2NC(=O)c2ccc(NC(C)=O)cc2OC)ccc1O (centres undefined) | inactive: 1.39 µM |
| CO/C(=N\N=C\c1ccccc1F)c1ccncc1 | inactive: > 10 µM |
| O=c1sc2ccccc2n1CC1CS1 (centres undefined) | inactive: > 100 µM |
| CCOC(=O)Nc1ccc(S(=O)(=O)I)cc1.CCOC(=O)Nc1ccc(S(=O)(=O)I)cc1.CNC(=O)N=O.NC(=O)OCCCl | inactive: > 100 µM |
| C[C@@H](NC(=O)[C@@H]1C[C@]1(C)CO)c1cccc2ccccc12 | inactive: > 100 µM |

| Structure (SMILES) | GI50 |
| --- | --- |
| O=C(O)CSc1nnc(/C=C/c2ccccc2)[nH]1 | inactive: > 100 µM |
| O=C1NC(O)c2ccccc2O1 (centres undefined) | inactive: > 100 µM |
| CCCC(=O)OCC1OC(n2ccc(N)nc2=O)C(OC(=O)CCC)C1OC(=O)CCC (centres undefined) | inactive: > 100 µM |
| O=C(OCc1ccccc1)N1CCNCCN(C(=O)OCc2ccccc2)CCNCC1 | inactive: 13.7 µM |
| COC(=O)CCC(C)C1CCC2C3C(C[C@H](OC(C)=O)[C@]12C)[C@@]1(C)CCC2(C[C@H]1C[C@H]3OC(C)=O)OOC1(CC[C@]3(C)C4C[C@H](OC(C)=O)[C@]5(C)C(C(C)CCC(=O)OC)CCC5C4[C@H](OC(C)=O)C[C@@H]3C1)OO2 (some centres undefined) | inactive: > 100 µM |
| O=C1N/C(=N/N=C\C(O)C(O)C(O)CO)N/C1=C/c1ccccc1 (centres undefined) | inactive: > 100 µM |
| CC(N)Cc1cccc(C(F)(F)F)c1 (centres undefined) | inactive: > 100 µM |
| C/C(=N\NC(=S)Nc1ccc(C(=O)O)cc1)c1ccccn1 | inactive: 17.9 µM |
| O=C1CC2[C@@H](N3CCCC3)CCC(N1Cc1ccccc1)C2(O)O (some centres undefined) | inactive: > 100 µM |
| CN(C)CCNc1nc(-c2cccs2)cc(-c2cccs2)n1 | inactive: 11.9 µM |
| O=[N+]([O-])c1ccc(C2=Nc3ccccc3[S+]([O-])C(c3ccccc3)C2)cc1 (centres undefined) | inactive: 29.6 µM |
| N#Cc1ccc(C(O)C(F)(F)c2nc3ccccc3o2)cc1 (centres undefined) | inactive: > 100 µM |
| Cc1nc(Cl)c2sc(=S)n(-c3ccc(F)cc3)c2n1 | inactive: 11.7 µM |
| CC1CCC2C(C)C3C(CC4C5CC=C6CC(OC7OC(CO)C(O)C(OC8OC(CO)C(O)C(O)C8O)C7OC7OC(C)C(O)C(O)C7O)CCC6(C)C5CCC43C)N2C1 (centres undefined) | inactive: 15.6 µM |
| CC1=NN(c2nc(N)nc(COCc3nc(N)nc(N4N=C(C)CC4(C)C)n3)n2)C(C)(C)C1 | inactive: > 100 µM |
| CCOC(=O)c1nc2ccc(C(F)(F)F)cc2nc1NCc1ccc(OC)cc1 | inactive: 50.6 µM |
| CCOC1=C2N=C(Cc3ccc(F)cc3)NC2C(=O)c2ccccc21 (centres undefined) | inactive: 27.4 µM |
| O=c1/c(=C/c2ccccc2[N+](=O)[O-])sc2nnc(-c3ccco3)n12 | inactive: > 100 µM |
| C[C@@H](NC(=O)[C@@H]1C[C@]1(C)COC(=O)c1cc([N+](=O)[O-])cc([N+](=O)[O-])c1)c1cccc2ccccc12 | inactive: > 100 µM |
| COc1cccc(C2c3cc4c(cc3OC(NNC(N)=O)C2C)OCO4)c1O (centres undefined) | inactive: 2.78 µM |
| CN(C)CCCN1C(=S)N(CCCN(C)C)c2c3cc(O)ccc3nc3c([N+](=O)[O-])ccc1c23 | inactive: 4.57 µM |
| N#Cc1c2ccccc2c(Cc2ccc3c(c2)OCCOCCOCCOCCOCCO3)c2ccccc12 | inactive: 14.6 µM |
| CN(C)CCCN1CCC2(CCC(C(C)(C)C)CC2)CC1 | inactive: 2.05 µM |

| Structure (SMILES) | GI50 |
| --- | --- |
| O=C1Nc2ccc(S(=O)(=O)O)cc2/C1=C1/Nc2ccc(Br)cc2C1=O | inactive: > 100 µM |
| NCCSCc1ccccc1Cl | inactive: > 100 µM |
| CCC1c2[nH]c3ccccc3c2C[C@H]2C(=O)NC(C)C(=O)N12 (some centres undefined) | inactive: > 100 µM |
| Cc1nc(N/N=C/c2ccccc2Cl)[nH]c(=O)c1CCO | inactive: > 100 µM |
| C=C1C(=O)O[C@@H]2C[C@]3(C)CC[C@]4(C)[C@H](CC[C@@H]5[C@@]6(C)CCC(=O)C(C)(C)[C@@H]6CC[C@]54C)[C@H]3[C@H]12 [OCHRACEOLIDE A] | inactive: 24.2 µM |
| Cc1ccc(/C=C(\C#N)c2ccccc2)cc1 | inactive: > 100 µM |
| CN1C=C(C(N)=O)C2CC(O)[C@@](NC(=O)CS(N)(=O)=O)(C(=O)O)C2C1 (some centres undefined) | inactive: 3.64 µM |
| COc1ccc(/C=c2\sc3n(c2=O)C(N)=C(C#N)C(c2ccc(OC)cc2)C=3c2nc3ccccc3[nH]2)cc1 (centres undefined) | inactive: 31.9 µM |
| CCCNc1c(Cl)cc(Cl)c2[nH]c3ccccc3c(=O)c12 | inactive: 83.6 µM |
| CC(C(=O)N1C(=O)N(C(=O)[C@H](C)C(O)c2ccccc2)[C@H](c2ccccc2)[C@H]1c1ccccc1)[C@@H](O)c1ccccc1 (some centres undefined) | inactive: 42.3 µM |
| COc1c(Br)cc2c(c1OC)C(Br)CCC(Br)(Br)C2=O (centres undefined) | inactive: 4.81 µM |
| c1ccc2sc(C3(N4CCC5(CC4)OCCO5)CCCCC3)cc2c1 | inactive: > 100 µM |
| N#C/C(C(=O)Nc1ccccc1)=C(/N)N1CCOCC1 | inactive: > 100 µM |
| OC(C1CO1)C(O)C1CO1 (centres undefined) | inactive: 138 µM |
| CCOC(=O)/C(=C/c1ccccc1Br)P(=O)(OCC)OCC | inactive: 3.52 µM |
| CC(C)(CN1CCCCC1)C(=O)/C=C/c1ccc(/C=C/C(=O)C(C)(C)CN2CCCCC2)cc1 | active: 0.986 µM |
| Cn1c2ccc([N+](=O)[O-])cc2c(=O)c2c(O)cc(O)cc21 | inactive: > 100 µM |
| COc1c(O)c(OC)c2oc(-c3ccc(O)c(O)c3)c(OC)c(=O)c2c1O | inactive: 17.8 µM |
| CCCCN(CCCC)CC(C(=O)Nc1ccccc1)/C(C)=N\NC(=O)c1ccncc1 (centres undefined) | inactive: > 100 µM |
| O=C1/C(=C\c2ccc([N+](=O)[O-])cc2)Sc2scc(-c3ccc(O)c(O)c3)[n+]21 | inactive: 18.4 µM |
